Laboratory results as given in PubChem BioAssay AID1508623 (National Center for Advancing Translational Sciences (NCATS), 2021).
Out of some 48,000 compounds screened, about 450 (0.94%) were called active. Inconclusive results (about 19%) are left out. Calls follow the shape of the dose curve; as a rule, active = well fitted inhibition curve with a large enough effect; inconclusive = small, poorly fitted or top-dose-only effect; inactive = no such curve, though single readings can be large or run the other way. The list shows a part of the results.

Assay: Primary qHTS for Identification of Small Molecule Inhibitors of Huntingtin Promoter Activity; also: nearly all actives have a fitted effect of over 50% in size
Conditions: HEK293 HTT promoter firefly luciferase reporter (activity 0% = vehicle and -100% = no light), 24 h; series mostly up to 57.5 µM; activity change, negative = inhibition: at the top concentration
In short: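 HEK293 luciferase promoter-reporter cells (2,500/well) plated 24 h, then compounds added at up to 57.5 uM final for 24 h at 37 °C. Firefly luminescence by Dual-Glo, normalized to vehicle (0%) and zero RLU (-100%).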

Activity change, negative = inhibition, inactive:
Oc1c(C(c2cccc(Cl)c2)N2CCOCC2)sc2nc(-c3ccco3)nn12 (configuration not stated) 4.24%
CCN1c2ccccc2-c2nc(SCC(=O)Nc3cc(C)c(Cl)cc3OC)ncc2S1(=O)=O -41%
Cc1ccc(C)c(N2CCN(c3nc4ccccc4n4nnnc34)CC2)c1 18.1%
O=C(COc1ccc(F)cc1)NCc1ccc2c(c1)CCN2C(=O)c1ccc(F)cc1 -31.2%
COc1ccc(CCNC(=O)c2c3c(nc4ccccc24)C(=O)N(C2CCCCC2)C3)cc1OC -22%
O=C(Nc1ccc(F)c(Cl)c1)C1CCN(c2ncccn2)CC1 -13.3%
Cc1cc(-n2c(C)nc3ccccc3c2=O)ccc1NC(=O)c1cccc([N+](=O)[O-])c1C -3.46%
Cc1cccc(OCC(=O)Nc2ccc(S(=O)(=O)N(Cc3ccccc3)c3ccccc3)cc2)c1 4.24% [at 11.5 µM]
COC(=O)c1ccccc1NC(=O)C1CCCN(C(=O)c2cnn(-c3ccc(F)cc3)c2-n2cccc2)C1 (configuration not stated) -18.7%
COCCn1c(=O)[nH]c2cc(C(=O)N3CCN(c4ccc(F)cc4)CC3)ccc2c1=O -19.1%
Cc1cc(Br)cc(C)c1OCC(=O)Nc1ccc(S(=O)(=O)Nc2ncccn2)cc1 -11.4%
N#C/C(=C\c1ccc(-c2ccc(Br)cc2)o1)C(=O)Nc1ccccc1O 9.13%
Cc1oc(-c2ccccc2F)nc1Cn1c(SCc2cccc(Cl)c2)nc2ccncc21 -24.9%
COc1cc2c(NC3CCN(C(C)C)CC3)nc(C3CCCCC3)nc2cc1OCCCN1CCCC1 -23.4%
CCOCCc1nn2c(=O)cc(COC(=O)c3ccccc3Br)nc2s1 1.79%
Cc1ccc(CNC(=O)C(=O)NCC(c2cccs2)S(=O)(=O)c2ccccc2)cc1 (configuration not stated) -27.6%
CCCn1c(=N)c(C(=O)NCc2ccccc2)cc2c(=O)n3cccc(C)c3nc21 -11.3%
CCCC(=O)OCc1cnc(C)c2oc(=O)c(C(=O)Nc3ccc(F)cc3C)cc12 -5.61%
COc1ccc(-c2noc(CNC(=O)c3ccc(OC)cc3OC)n2)cc1 -11.2%
Cc1ccc(C)c(NC(=O)C2CCCN2S(=O)(=O)c2ccc3c(c2)CCCC(=O)N3)c1 (configuration not stated) -60.9%
CCC1=Nc2cc(C(=O)N3CCC(C)CC3)ccc2Sc2ccc(C)cc21 -11.9%
COc1cccc(-c2noc(COc3cccc(C)c3C)n2)c1 22.9%
CCOc1ccc(CCNC(=O)C2CC(=O)N(CCc3ccc(OC)c(OC)c3)C2)cc1OCC (configuration not stated) -18.6%
CCCCN(CC)CCNC(=O)c1nn(-c2ccc(OC)cc2)c(=O)c2c1c1ccccc1n2C -14.8%
N#C/C(=C\c1ccccc1)c1nc(-c2cc3c(ccc4ccccc43)oc2=O)cs1 3.27%
CCOC(=O)c1cccc(NC(=O)Cn2cnc3nc4c(cc3c2=O)CCCC4)c1 -19.7%
CCN(CC)CCCNC(=O)c1ccc2c(c1)NC(=O)C(CS(=O)(=O)Cc1ccc(F)cc1Cl)N2 (configuration not stated) 2.67%
COCCNC(=O)c1sc2nc3n(c(=O)c2c1C)CCC3 6.2%
COc1ccc(N2CC(c3nc(-c4ccccc4C)no3)CC2=O)cc1Cl (configuration not stated) -3.39%
CCNC(=O)NCCCOc1cccc(CN2CCCCC2)c1 -12.8%
COC(=O)c1ccc(NC(=O)C(c2ccccc2)N2Cc3ccccc3C2=O)cc1 (configuration not stated) -9.42%
Cc1cccc(CCNC(=O)CCc2c(C)nc3c(-c4ccc(F)cc4)c(C)nn3c2C)c1 -14.8%
Cc1nc(-c2ccc(Cl)cc2)sc1CCNC(=O)C(=O)Nc1ccccc1C#N -25.5%
COc1ccc(N2CCN(C(=O)c3cc4c(s3)-c3c(C)cccc3OC4)CC2)cc1 -0.507%
Cc1cc(C)cc(NC(=O)C2CCCN(c3nnc(-n4c(C)ccc4C)s3)C2)c1 (configuration not stated) -20.7%
CCCc1ccc(OC(=O)c2sc3ncn(Cc4cccc(F)c4)c(=O)c3c2C)cc1 -19.2% [at 11.5 µM]
COc1ccc(NC(=O)Cn2c(SCc3c(F)cccc3Cl)nc3ccncc32)cc1OC -6.74%
COCCn1c(SCC(=O)Nc2ccc(Br)cc2)nc2c([nH]c3ccccc32)c1=O -2.76%
CCCCN(C(=O)Nc1ccc(OCC)cc1)C1CCN(C(C)=O)CC1 4.63%
COC(=O)/C=C(/C)N 18%
COc1ccccc1CSc1nc2n(n1)C(c1ccccc1)C(C(=O)Nc1ccc(C)cc1)=C(C)N2 (configuration not stated) -27.3%
Cc1ccc(NC(=O)C2CCCN(S(=O)(=O)c3ccc(C)cc3)C2)cc1 (configuration not stated) -9.34%
COc1ccc(NC(=O)Cn2ncc3c4ccccc4n(Cc4ccccc4)c3c2=O)cc1OC 16.5%
COc1ccccc1-c1ncnn1-c1sc2c(c1C#N)CCCCC2 3.79%
Cc1ccc(NC(=O)Cn2nc(-c3ccc(Cl)cc3)c3ccccc3c2=O)cc1 -11.4%
NNCCc1ccccc1
Cc1c(Cl)cccc1NC(=O)CCS(=O)(=O)c1cccc2nsnc12 -8.27%
COc1ccc(OC)c(S(=O)(=O)NCCc2sc(C)nc2C)c1 -14.2%
Cc1cccc(COc2ccc(-c3cc(C(F)(F)F)n4nc(C)cc4n3)cc2)c1 3.41%
Cc1ccc(CNC(=O)CCN2C(=O)C(C)Oc3ccc(C)cc32)cc1 (configuration not stated) -21.8%
CCc1ccc(-c2nc3cc(NC(=O)c4ccc(F)cc4)ccc3o2)cc1 -5.42%
Cc1ccc(NC(=O)CCNS(=O)(=O)c2cccs2)cc1F 15.6%
Cc1cn2c(=O)cc(COC(=O)COc3ccc(F)cc3)nc2s1 -15.1%
COc1ccc(-n2c(=O)c3c(c4cc(OC)ccc4n3C)n(Cc3c(F)cccc3Cl)c2=O)cc1 1.5%
CSc1ncc2c(n1)-c1ccccc1N(Cc1ccccc1C)S2(=O)=O -14.3%
Cc1cccc(-n2c3nc(=O)n(C)c(=O)c-3cc3c(C)nn(-c4ccccc4)c32)c1C -6.75%
COC1(C(F)(F)F)NC(=O)N(c2ccc(F)cc2)C1=O (configuration not stated) -24.3% [at 11.5 µM]
COc1ccc(Cl)cc1NC(=O)N1CCC2(CC1)Oc1ccccc1C(=O)N2Cc1ccc(F)cc1 -27.9%
CSc1nc2sc3c(c2c(=O)n1-c1ccc(C)cc1)CCCC3 -6.45%
Cc1ccc(OCCSc2nc3ccc(NC(=O)COc4ccc(C)cc4)cc3s2)cc1 1.66%
CCOC(=O)c1cnn(-c2cccc(Cl)c2)c1C1CCN(C(=O)OC(C)(C)C)CC1 -6.88%
COc1ccc(NC(=O)N2CCC(n3c(C)nc4cccnc43)CC2)cc1OC 6.44%
